Results are given in words; binding and its absence hold for the method and conditions named. For some assays here: In cells and extracts the contact can be indirect. Some results given as binding are weak or reduced against the parent protein; the word gives no strength. Where a sequence is shown, tags or fusion partners need not be part of it.

For experiment [1], the target named is T1, GST-CIPK9 (Arabidopsis thaliana) (UniProt Q9MAM1).
T1 sequence: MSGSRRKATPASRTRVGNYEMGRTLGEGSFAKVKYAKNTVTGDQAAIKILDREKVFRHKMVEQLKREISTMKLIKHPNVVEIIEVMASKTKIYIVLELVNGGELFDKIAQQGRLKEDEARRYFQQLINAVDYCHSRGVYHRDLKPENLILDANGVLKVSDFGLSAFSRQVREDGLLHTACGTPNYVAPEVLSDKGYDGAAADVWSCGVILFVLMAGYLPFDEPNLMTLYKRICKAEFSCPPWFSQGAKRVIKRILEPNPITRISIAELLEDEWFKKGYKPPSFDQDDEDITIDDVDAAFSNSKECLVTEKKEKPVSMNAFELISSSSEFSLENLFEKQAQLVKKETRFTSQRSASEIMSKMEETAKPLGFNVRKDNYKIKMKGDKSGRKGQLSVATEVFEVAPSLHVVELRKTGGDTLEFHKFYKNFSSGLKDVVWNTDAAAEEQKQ
The experiment can be described thus: pull-down; Glutathione-sepharose 4B-bound GST-fused protein (approximately 1 ug) incubated with bacterial soluble lysate expressing the 6X-His fusion protein for 4 h at 4 °C; washed six times with phosphate buffer saline; anti-His immunoblot; only the target purified.

Experiment [2] concerns the target T2, YFP-CIPK9 (Arabidopsis thaliana) (UniProt Q9MAM1).
T2 sequence: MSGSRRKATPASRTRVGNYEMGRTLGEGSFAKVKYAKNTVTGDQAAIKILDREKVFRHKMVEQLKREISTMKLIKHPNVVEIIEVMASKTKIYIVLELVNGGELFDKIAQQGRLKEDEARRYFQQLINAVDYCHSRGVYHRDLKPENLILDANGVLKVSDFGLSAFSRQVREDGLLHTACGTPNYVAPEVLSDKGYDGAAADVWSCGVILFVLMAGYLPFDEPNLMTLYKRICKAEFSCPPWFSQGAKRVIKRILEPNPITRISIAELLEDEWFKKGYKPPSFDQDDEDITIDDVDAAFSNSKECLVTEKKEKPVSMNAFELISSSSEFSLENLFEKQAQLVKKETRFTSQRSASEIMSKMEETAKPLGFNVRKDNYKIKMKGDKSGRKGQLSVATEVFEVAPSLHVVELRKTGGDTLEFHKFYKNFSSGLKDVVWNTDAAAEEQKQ
Briefly: FRET or BRET; FRET by acceptor bleaching, CFP and YFP fusions co-expressed in N. benthamiana cells, confocal microscopy; at least seven cells.

Experiment [3] concerns the target T3, CIPK9 fused to the N-terminal fragment of YFP (Arabidopsis thaliana) (UniProt Q9MAM1).
T3 sequence: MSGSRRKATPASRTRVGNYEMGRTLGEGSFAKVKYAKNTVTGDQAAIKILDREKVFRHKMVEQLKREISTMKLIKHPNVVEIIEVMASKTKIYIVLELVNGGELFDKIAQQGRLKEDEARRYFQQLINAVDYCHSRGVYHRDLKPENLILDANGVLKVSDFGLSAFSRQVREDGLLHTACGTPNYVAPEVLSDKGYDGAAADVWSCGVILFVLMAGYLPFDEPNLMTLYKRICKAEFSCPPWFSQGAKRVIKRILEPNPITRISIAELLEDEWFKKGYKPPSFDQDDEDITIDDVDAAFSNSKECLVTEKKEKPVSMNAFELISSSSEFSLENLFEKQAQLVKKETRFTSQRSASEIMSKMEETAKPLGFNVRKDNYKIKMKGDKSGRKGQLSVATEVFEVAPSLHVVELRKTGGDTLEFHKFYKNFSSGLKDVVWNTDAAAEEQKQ
Briefly: split reporter; BiFC with YFPc and YFPn fusions (pSPYCE-35S^GW, pSPYNE-35S^GW) co-infiltrated in N. benthamiana cells, confocal microscopy.

For experiment [4], the target named is T4, CBL-interacting protein kinase 9 (CIPK9), two-hybrid fusion (Arabidopsis thaliana) (UniProt Q9MAM1).
T4 sequence: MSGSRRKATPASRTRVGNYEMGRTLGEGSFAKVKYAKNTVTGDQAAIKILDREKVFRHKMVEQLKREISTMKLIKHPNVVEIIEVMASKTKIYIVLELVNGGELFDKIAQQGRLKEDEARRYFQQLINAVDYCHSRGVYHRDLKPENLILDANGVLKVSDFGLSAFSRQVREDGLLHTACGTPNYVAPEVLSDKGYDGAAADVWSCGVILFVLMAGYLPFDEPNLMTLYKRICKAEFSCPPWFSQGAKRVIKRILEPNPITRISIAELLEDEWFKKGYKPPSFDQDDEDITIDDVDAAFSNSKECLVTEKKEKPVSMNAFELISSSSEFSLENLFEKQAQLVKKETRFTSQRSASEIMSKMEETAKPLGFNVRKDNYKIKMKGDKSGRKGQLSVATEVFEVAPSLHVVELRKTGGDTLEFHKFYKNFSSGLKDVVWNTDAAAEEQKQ
Briefly: two-hybrid; yeast strain AH109 co-transformed with AD (pGAD.GH) and BD (pGBT9.BS) fusions; growth on SC-LWH and on SC-LWH with 0.5 and 3.0 mM 3-AT.

For experiment [5], the target named is T5, AP2C1 (protein phosphatase 2C), two-hybrid fusion (Arabidopsis thaliana) (UniProt O80871).
T5 sequence: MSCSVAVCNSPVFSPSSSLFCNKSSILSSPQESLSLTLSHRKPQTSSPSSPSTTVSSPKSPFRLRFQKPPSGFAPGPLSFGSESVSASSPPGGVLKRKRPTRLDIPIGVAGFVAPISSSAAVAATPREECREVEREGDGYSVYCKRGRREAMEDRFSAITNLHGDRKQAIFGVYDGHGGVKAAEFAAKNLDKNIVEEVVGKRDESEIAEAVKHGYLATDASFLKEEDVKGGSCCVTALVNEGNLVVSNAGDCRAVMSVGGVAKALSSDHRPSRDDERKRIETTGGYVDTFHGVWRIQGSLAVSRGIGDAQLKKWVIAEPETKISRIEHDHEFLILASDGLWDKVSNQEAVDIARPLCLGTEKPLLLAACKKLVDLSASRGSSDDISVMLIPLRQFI
Described as above.

B1: His-AP2C1 (enzyme, UniProt O80871 1-396)
chain: MSCSVAVCNSPVFSPSSSLFCNKSSILSSPQESLSLTLSHRKPQTSSPSSPSTTVSSPKSPFRLRFQKPPSGFAPGPLSFGSESVSASSPPGGVLKRKRPTRLDIPIGVAGFVAPISSSAAVAATPREECREVEREGDGYSVYCKRGRREAMEDRFSAITNLHGDRKQAIFGVYDGHGGVKAAEFAAKNLDKNIVEEVVGKRDESEIAEAVKHGYLATDASFLKEEDVKGGSCCVTALVNEGNLVVSNAGDCRAVMSVGGVAKALSSDHRPSRDDERKRIETTGGYVDTFHGVWRIQGSLAVSRGIGDAQLKKWVIAEPETKISRIEHDHEFLILASDGLWDKVSNQEAVDIARPLCLGTEKPLLLAACKKLVDLSASRGSSDDISVMLIPLRQFI
Regarding B1, the binding entry in experiment [1] is given as “binds”.

B2: AP2C1 fused to cyan fluorescent protein (enzyme, UniProt O80871 1-396)
chain: MSCSVAVCNSPVFSPSSSLFCNKSSILSSPQESLSLTLSHRKPQTSSPSSPSTTVSSPKSPFRLRFQKPPSGFAPGPLSFGSESVSASSPPGGVLKRKRPTRLDIPIGVAGFVAPISSSAAVAATPREECREVEREGDGYSVYCKRGRREAMEDRFSAITNLHGDRKQAIFGVYDGHGGVKAAEFAAKNLDKNIVEEVVGKRDESEIAEAVKHGYLATDASFLKEEDVKGGSCCVTALVNEGNLVVSNAGDCRAVMSVGGVAKALSSDHRPSRDDERKRIETTGGYVDTFHGVWRIQGSLAVSRGIGDAQLKKWVIAEPETKISRIEHDHEFLILASDGLWDKVSNQEAVDIARPLCLGTEKPLLLAACKKLVDLSASRGSSDDISVMLIPLRQFI
Turning to B2, in experiment [2], the binding entry is reported as “binds”.

B3: AP2C1 fused to the C-terminal fragment of YFP (enzyme, UniProt O80871 1-396)
chain: MSCSVAVCNSPVFSPSSSLFCNKSSILSSPQESLSLTLSHRKPQTSSPSSPSTTVSSPKSPFRLRFQKPPSGFAPGPLSFGSESVSASSPPGGVLKRKRPTRLDIPIGVAGFVAPISSSAAVAATPREECREVEREGDGYSVYCKRGRREAMEDRFSAITNLHGDRKQAIFGVYDGHGGVKAAEFAAKNLDKNIVEEVVGKRDESEIAEAVKHGYLATDASFLKEEDVKGGSCCVTALVNEGNLVVSNAGDCRAVMSVGGVAKALSSDHRPSRDDERKRIETTGGYVDTFHGVWRIQGSLAVSRGIGDAQLKKWVIAEPETKISRIEHDHEFLILASDGLWDKVSNQEAVDIARPLCLGTEKPLLLAACKKLVDLSASRGSSDDISVMLIPLRQFI
In the case of B3, the binding result in experiment [3] is listed as “binds”.

B4: AIP1 (PP2C, homolog of AP2C1), two-hybrid fusion (enzyme, UniProt Q9LNW3 1-442)
chain: MADICYEDETSACESRPLWSSRKWRIGVQRFRMSPSEMNPTASTTEEEDKSEGIYNKRNKQEEYDFMNCASSSPSQSSPEEESVSLEDSDVSISDGNSSVNDVAVIPSKKTVKETDLRPRYGVASVCGRRRDMEDAVALHPSFVRKQTEFSRTRWHYFGVYDGHGCSHVAARCKERLHELVQEEALSDKKEEWKKMMERSFTRMDKEVVRWGETVMSANCRCELQTPDCDAVGSTAVVSVITPEKIIVANCGDSRAVLCRNGKAVPLSTDHKPDRPDELDRIQEAGGRVIYWDGARVLGVLAMSRAIGDNYLKPYVTSEPEVTVTDRTEEDEFLILATDGLWDVVTNEAACTMVRMCLNRKSGRGRRRGETQTPGRRSEEEGKEEEEKVVGSRKNGKRGEITDKACTEASVLLTKLALAKHSSDNVSVVVIDLRRRRKRHVA
B4: in experiment [4], the binding result is on record as “no binding”.

B5: CBL-interacting protein kinase 9 (CIPK9), two-hybrid fusion (enzyme, UniProt Q9MAM1 1-447)
chain: MSGSRRKATPASRTRVGNYEMGRTLGEGSFAKVKYAKNTVTGDQAAIKILDREKVFRHKMVEQLKREISTMKLIKHPNVVEIIEVMASKTKIYIVLELVNGGELFDKIAQQGRLKEDEARRYFQQLINAVDYCHSRGVYHRDLKPENLILDANGVLKVSDFGLSAFSRQVREDGLLHTACGTPNYVAPEVLSDKGYDGAAADVWSCGVILFVLMAGYLPFDEPNLMTLYKRICKAEFSCPPWFSQGAKRVIKRILEPNPITRISIAELLEDEWFKKGYKPPSFDQDDEDITIDDVDAAFSNSKECLVTEKKEKPVSMNAFELISSSSEFSLENLFEKQAQLVKKETRFTSQRSASEIMSKMEETAKPLGFNVRKDNYKIKMKGDKSGRKGQLSVATEVFEVAPSLHVVELRKTGGDTLEFHKFYKNFSSGLKDVVWNTDAAAEEQKQ
With B5, the binding entry in experiment [5] was “binds”.

These data come from PMC6054203.
